# Experimental data taken from the supplement of paper PMC8728848.
# This is one part of the list.
# B1: HPA (Helix pomatia), Q575S3 (protein)
# chain: MWAHLTGLLLICALSLSAAQRAQTGEIDCGSDSSWPKDPSDNPNRDNTREIVKHVTFSPQFCREPKVILSVTTLDAEHTKNLRYEARLKSVSPSGLSASCYSWHDGTIYRMKLSWLAVED
# Key:
# Assay in all cases: glycan array binding signal (z-score within array); higher = stronger binding
# Conditions in all cases: glycan notation: IUPAC condensed, linker removed
# Gal(b1-4)GlcNAc6P = molecular target: Gal(b1-4)GlcNAc6P
# Procedure, shortened: (§1)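 From the Consortium for Functional Glycomics database, 3228 arrays were curated, keeping only those whose protein sequence was available. Binding is given as a within-array Z-score averaged across arrays sharing a protein sequence and across linkers. Negative Z-scores can be read as non-binding.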
# Gal(b1-6)Gal = molecular target: Gal(b1-6)Gal
# Procedure, shortened: as §1
# Gal3S(b1-3)GalNAc = molecular target: Gal3S(b1-3)GalNAc
# Procedure, shortened: as §1
# Gal3S(b1-3)GlcNAc = molecular target: Gal3S(b1-3)GlcNAc
# Procedure, shortened: as §1
# [1] = molecular target: Gal3S(b1-3)[Fuc(a1-4)]GlcNAc
# Procedure, shortened: as §1
# Gal3S(b1-4)Glc = molecular target: Gal3S(b1-4)Glc
# Procedure, shortened: as §1
# Gal3S(b1-4)Glc6S = molecular target: Gal3S(b1-4)Glc6S
# Procedure, shortened: as §1
# Gal3S(b1-4)GlcNAc = molecular target: Gal3S(b1-4)GlcNAc
# Procedure, shortened: as §1
# Gal3S(b1-4)GlcNAc6S = molecular target: Gal3S(b1-4)GlcNAc6S
# Procedure, shortened: as §1
# [2] = molecular target: Gal3S(b1-4)[Fuc(a1-3)]Glc
# Procedure, shortened: as §1
# [3] = molecular target: Gal3S(b1-4)[Fuc(a1-3)]Glc6S
# Procedure, shortened: as §1
# [4] = molecular target: Gal3S(b1-4)[Fuc(a1-3)]GlcNAc
# Procedure, shortened: as §1
# [5] = molecular target: Gal3S(b1-4)[Fuc(a1-3)]GlcNAc6S
# Procedure, shortened: as §1
# Gal3S4S(b1-4)GlcNAc = molecular target: Gal3S4S(b1-4)GlcNAc
# Procedure, shortened: as §1
# Gal3S6S(b1-4)GlcNAc = molecular target: Gal3S6S(b1-4)GlcNAc
# Procedure, shortened: as §1
# Gal3S6S(b1-4)GlcNAc6S = molecular target: Gal3S6S(b1-4)GlcNAc6S
# Procedure, shortened: as §1
# Gal4S(b1-4)GlcNAc = molecular target: Gal4S(b1-4)GlcNAc
# Procedure, shortened: as §1
# Gal4S6S(b1-4)GlcNAc = molecular target: Gal4S6S(b1-4)GlcNAc
# Procedure, shortened: as §1
# Gal6P(b1-4)GlcNAc = molecular target: Gal6P(b1-4)GlcNAc
# Procedure, shortened: as §1
# Gal6S(b1-3)GlcNAc = molecular target: Gal6S(b1-3)GlcNAc
# Procedure, shortened: as §1
# Gal6S(b1-3)GlcNAc6S = molecular target: Gal6S(b1-3)GlcNAc6S
# Procedure, shortened: as §1
# Gal6S(b1-4)Glc = molecular target: Gal6S(b1-4)Glc
# Procedure, shortened: as §1
# Gal6S(b1-4)Glc6S = molecular target: Gal6S(b1-4)Glc6S
# Procedure, shortened: as §1
# Gal6S(b1-4)GlcNAc = molecular target: Gal6S(b1-4)GlcNAc
# Procedure, shortened: as §1
# Gal6S(b1-4)GlcNAc6S = molecular target: Gal6S(b1-4)GlcNAc6S
# Procedure, shortened: as §1
# GalNAc(a1-3)Gal = molecular target: GalNAc(a1-3)Gal
# Procedure, shortened: as §1
# GalNAc(a1-3)GalNAc = molecular target: GalNAc(a1-3)GalNAc
# Procedure, shortened: as §1
# [6] = molecular target: GalNAc(a1-3)GalNAc(a1-3)Gal(a1-4)Gal(b1-4)GlcNAc
# Procedure, shortened: as §1
# [7] = molecular target: GalNAc(a1-3)GalNAc(b1-3)Gal(a1-4)Gal(b1-4)Glc
# Procedure, shortened: as §1
# [8] = molecular target: GalNAc(a1-3)GalNAc(b1-3)Gal(a1-4)Gal(b1-4)GlcNAc
# Procedure, shortened: as §1
# GalNAc(b1-3)Gal = molecular target: GalNAc(b1-3)Gal
# Procedure, shortened: as §1
# [9] = molecular target: GalNAc(b1-3)Gal(a1-4)Gal(b1-4)GlcNAc
# Procedure, shortened: as §1
# [10] = molecular target: GalNAc(b1-3)Gal(a1-4)Gal(b1-4)GlcNAc(b1-3)Gal(b1-4)Glc
# Procedure, shortened: as §1
# [11] = molecular target: GalNAc(b1-3)Gal(a1-6)Gal(b1-4)Glc
# Procedure, shortened: as §1
# GalNAc(b1-3)GalNAc = molecular target: GalNAc(b1-3)GalNAc
# Procedure, shortened: as §1
# GalNAc(b1-3)GlcNAc = molecular target: GalNAc(b1-3)GlcNAc
# Procedure, shortened: as §1
# GalNAc(b1-4)Gal(b1-4)Glc = molecular target: GalNAc(b1-4)Gal(b1-4)Glc
# Procedure, shortened: as §1
# GalNAc(b1-4)GlcNAc = molecular target: GalNAc(b1-4)GlcNAc
# Procedure, shortened: as §1
# [12] = molecular target: GalNAc(b1-4)GlcNAc(b1-2)Man
# Procedure, shortened: as §1
# [13] = molecular target: GalNAc(b1-4)GlcNAc(b1-2)Man(a1-3)[GalNAc(b1-4)GlcNAc(b1-2)Man(a1-6)]Man(b1-4)GlcNAc(b1-4)GlcNAc
# Procedure, shortened: as §1
# [14] = molecular target: GalNAc(b1-4)GlcNAc(b1-3)GalNAc(b1-4)GlcNAc
# Procedure, shortened: as §1
# GalNAc(b1-4)GlcNAc6S = molecular target: GalNAc(b1-4)GlcNAc6S
# Procedure, shortened: as §1
# GalNAc(b1-6)GalNAc = molecular target: GalNAc(b1-6)GalNAc
# Procedure, shortened: as §1
# GalNAc3S(b1-4)GlcNAc = molecular target: GalNAc3S(b1-4)GlcNAc
# Procedure, shortened: as §1
# GalNAc3S(b1-4)GlcNAc3S = molecular target: GalNAc3S(b1-4)GlcNAc3S
# Procedure, shortened: as §1
binder,measurement,setting,value
B1,glycan array binding signal (z-score),Gal(b1-4)GlcNAc6P,-0.258
same,glycan array binding signal (z-score),Gal(b1-6)Gal,-0.241
same,glycan array binding signal (z-score),Gal3S(b1-3)GalNAc,0.169
same,glycan array binding signal (z-score),Gal3S(b1-3)GlcNAc,-0.253
same,glycan array binding signal (z-score),[1],-0.26
same,glycan array binding signal (z-score),Gal3S(b1-4)Glc,-0.259
same,glycan array binding signal (z-score),Gal3S(b1-4)Glc6S,-0.257
same,glycan array binding signal (z-score),Gal3S(b1-4)GlcNAc,-0.254
same,glycan array binding signal (z-score),Gal3S(b1-4)GlcNAc6S,-0.265
same,glycan array binding signal (z-score),[2],-0.2
same,glycan array binding signal (z-score),[3],-0.229
same,glycan array binding signal (z-score),[4],-0.251
same,glycan array binding signal (z-score),[5],-0.252
same,glycan array binding signal (z-score),Gal3S4S(b1-4)GlcNAc,-0.266
same,glycan array binding signal (z-score),Gal3S6S(b1-4)GlcNAc,-0.266
same,glycan array binding signal (z-score),Gal3S6S(b1-4)GlcNAc6S,-0.255
same,glycan array binding signal (z-score),Gal4S(b1-4)GlcNAc,-0.267
same,glycan array binding signal (z-score),Gal4S6S(b1-4)GlcNAc,-0.268
same,glycan array binding signal (z-score),Gal6P(b1-4)GlcNAc,-0.251
same,glycan array binding signal (z-score),Gal6S(b1-3)GlcNAc,-0.249
same,glycan array binding signal (z-score),Gal6S(b1-3)GlcNAc6S,-0.242
same,glycan array binding signal (z-score),Gal6S(b1-4)Glc,-0.265
same,glycan array binding signal (z-score),Gal6S(b1-4)Glc6S,-0.259
same,glycan array binding signal (z-score),Gal6S(b1-4)GlcNAc,-0.26
same,glycan array binding signal (z-score),Gal6S(b1-4)GlcNAc6S,-0.188
same,glycan array binding signal (z-score),GalNAc(a1-3)Gal,4.18
same,glycan array binding signal (z-score),GalNAc(a1-3)GalNAc,4.53
same,glycan array binding signal (z-score),[6],5.04
same,glycan array binding signal (z-score),[7],3.7
same,glycan array binding signal (z-score),[8],5.7
same,glycan array binding signal (z-score),GalNAc(b1-3)Gal,-0.228
same,glycan array binding signal (z-score),[9],-0.249
same,glycan array binding signal (z-score),[10],-0.258
same,glycan array binding signal (z-score),[11],-0.248
same,glycan array binding signal (z-score),GalNAc(b1-3)GalNAc,-0.27
same,glycan array binding signal (z-score),GalNAc(b1-3)GlcNAc,-0.266
same,glycan array binding signal (z-score),GalNAc(b1-4)Gal(b1-4)Glc,-0.239
same,glycan array binding signal (z-score),GalNAc(b1-4)GlcNAc,-0.262
same,glycan array binding signal (z-score),[12],-0.256
same,glycan array binding signal (z-score),[13],-0.2
same,glycan array binding signal (z-score),[14],-0.26
same,glycan array binding signal (z-score),GalNAc(b1-4)GlcNAc6S,-0.261
same,glycan array binding signal (z-score),GalNAc(b1-6)GalNAc,-0.253
same,glycan array binding signal (z-score),GalNAc3S(b1-4)GlcNAc,-0.254
same,glycan array binding signal (z-score),GalNAc3S(b1-4)GlcNAc3S,-0.263
